The list shows a part of the results.
What was measured:
Experiment in all cases: glycan array binding signal (z-score within array); higher = stronger binding
Conditions in all cases: glycan notation: IUPAC condensed, linker removed
[1] = target: Neu5Ac(a2-6)Gal(b1-4)GlcNAc(b1-3)Gal(b1-4)GlcNAc(b1-3)GalNAc
Summary of the method: (§1)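 The Consortium for Functional Glycomics database supplied 3228 glycan arrays, of which those lacking an available protein sequence were dropped. The binding signal, a within-array Z-score, was averaged across arrays of the same protein sequence and across linkers. Negative scores can be read as non-binding.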

[2] = target: Neu5Ac(a2-6)Gal(b1-4)GlcNAc(b1-3)Gal(b1-4)GlcNAc(b1-3)[Neu5Ac(a2-6)Gal(b1-4)GlcNAc(b1-3)Gal(b1-4)GlcNAc(b1-6)]GalNAc
Summary of the method: as §1

[3] = target: Neu5Ac(a2-6)Gal(b1-4)GlcNAc(b1-3)Gal(b1-4)GlcNAc(b1-6)[Gal(b1-3)]GalNAc
Summary of the method: as §1

[4] = target: Neu5Ac(a2-6)Gal(b1-4)GlcNAc(b1-3)Gal(b1-4)[Fuc(a1-3)]GlcNAc(b1-3)Gal(b1-4)[Fuc(a1-3)]GlcNAc
Summary of the method: as §1

[5] = target: Neu5Ac(a2-6)Gal(b1-4)GlcNAc(b1-3)GalNAc
Summary of the method: as §1

[6] = target: Neu5Ac(a2-6)Gal(b1-4)GlcNAc(b1-3)[Neu5Ac(a2-6)Gal(b1-4)GlcNAc(b1-6)]GalNAc
Summary of the method: as §1

[7] = target: Neu5Ac(a2-6)Gal(b1-4)GlcNAc(b1-6)GalNAc
Summary of the method: as §1

[8] = target: Neu5Ac(a2-6)Gal(b1-4)GlcNAc(b1-6)[Gal(b1-3)GlcNAc(b1-3)]Gal(b1-4)Glc
Summary of the method: as §1

[9] = target: Neu5Ac(a2-6)Gal(b1-4)GlcNAc(b1-6)[Gal(b1-3)]GalNAc
Summary of the method: as §1

[10] = target: Neu5Ac(a2-6)Gal(b1-4)GlcNAc6S
Summary of the method: as §1

Neu5Ac(a2-6)GalNAc = target: Neu5Ac(a2-6)GalNAc
Summary of the method: as §1

[11] = target: Neu5Ac(a2-6)GalNAc(b1-4)GlcNAc
Summary of the method: as §1

[12] = target: Neu5Ac(a2-6)GalNAc(b1-4)GlcNAc6S
Summary of the method: as §1

[13] = target: Neu5Ac(a2-6)GlcNAc(b1-4)GlcNAc
Summary of the method: as §1

[14] = target: Neu5Ac(a2-6)GlcNAc(b1-4)GlcNAc(b1-4)GlcNAc
Summary of the method: as §1

Neu5Ac(a2-8)Neu5Ac = target: Neu5Ac(a2-8)Neu5Ac
Summary of the method: as §1

[15] = target: Neu5Ac(a2-8)Neu5Ac(a2-3)Gal(b1-3)GalNAc(b1-4)[Neu5Ac(a2-3)]Gal(b1-4)Glc
Summary of the method: as §1

[16] = target: Neu5Ac(a2-8)Neu5Ac(a2-3)Gal(b1-3)GalNAc(b1-4)[Neu5Ac(a2-8)Neu5Ac(a2-3)]Gal(b1-4)Glc
Summary of the method: as §1

[17] = target: Neu5Ac(a2-8)Neu5Ac(a2-3)Gal(b1-4)Glc
Summary of the method: as §1

[18] = target: Neu5Ac(a2-8)Neu5Ac(a2-3)Gal(b1-4)GlcNAc
Summary of the method: as §1

[19] = target: Neu5Ac(a2-8)Neu5Ac(a2-3)[Gal(b1-3)GalNAc(b1-4)]Gal(b1-4)Glc
Summary of the method: as §1

[20] = target: Neu5Ac(a2-8)Neu5Ac(a2-3)[GalNAc(b1-4)]Gal(b1-4)Glc
Summary of the method: as §1

[21] = target: Neu5Ac(a2-8)Neu5Ac(a2-8)Neu5Ac
Summary of the method: as §1

[22] = target: Neu5Ac(a2-8)Neu5Ac(a2-8)Neu5Ac(a2-3)Gal(b1-4)Glc
Summary of the method: as §1

[23] = target: Neu5Ac(a2-8)Neu5Ac(a2-8)Neu5Ac(a2-3)[Gal(b1-3)GalNAc(b1-4)]Gal(b1-4)Glc
Summary of the method: as §1

[24] = target: Neu5Ac(a2-8)Neu5Ac(a2-8)Neu5Ac(a2-3)[GalNAc(b1-4)]Gal(b1-4)Glc
Summary of the method: as §1

[25] = target: Neu5Ac(a2-8)Neu5Ac(a2-8)Neu5Ac(a2-8)Neu5Ac(a2-3)[GalNAc(b1-4)]Gal(b1-4)Glc
Summary of the method: as §1

[26] = target: Neu5Ac(a2-8)Neu5Gc(a2-3)Gal(b1-4)GlcNAc
Summary of the method: as §1

[27] = target: Neu5Ac(b2-6)Gal(b1-4)GlcNAc
Summary of the method: as §1

Neu5Ac(b2-6)GalNAc = target: Neu5Ac(b2-6)GalNAc
Summary of the method: as §1

[28] = target: Neu5Ac9Ac(a2-3)Gal(b1-3)GlcNAc
Summary of the method: as §1

[29] = target: Neu5Ac9Ac(a2-3)Gal(b1-4)GlcNAc
Summary of the method: as §1

[30] = target: Neu5Ac9Ac(a2-6)Gal(b1-4)GlcNAc
Summary of the method: as §1

[31] = target: Neu5Gc(a2-3)Gal(b1-3)GlcNAc
Summary of the method: as §1

[32] = target: Neu5Gc(a2-3)Gal(b1-3)[Fuc(a1-4)]GlcNAc
Summary of the method: as §1

Neu5Gc(a2-3)Gal(b1-4)Glc = target: Neu5Gc(a2-3)Gal(b1-4)Glc
Summary of the method: as §1

[33] = target: Neu5Gc(a2-3)Gal(b1-4)GlcNAc
Summary of the method: as §1

[34] = target: Neu5Gc(a2-3)Gal(b1-4)GlcNAc(b1-3)Gal(b1-4)GlcNAc(b1-2)Man(a1-3)[Neu5Gc(a2-3)Gal(b1-4)GlcNAc(b1-3)Gal(b1-4)GlcNAc(b1-2)Man(a1-6)]Man(b1-4)GlcNAc(b1-4)GlcNAc
Summary of the method: as §1

[35] = target: Neu5Gc(a2-3)Gal(b1-4)[Fuc(a1-3)]GlcNAc
Summary of the method: as §1

[36] = target: Neu5Gc(a2-6)Gal(b1-4)GlcNAc
Summary of the method: as §1

Neu5Gc(a2-6)GalNAc = target: Neu5Gc(a2-6)GalNAc
Summary of the method: as §1

[37] = target: Neu5Gc(a2-8)Neu5Ac(a2-3)Gal(b1-4)GlcNAc
Summary of the method: as §1

[38] = target: Neu5Gc(a2-8)Neu5Gc(a2-3)Gal(b1-4)GlcNAc
Summary of the method: as §1

[39] = target: Neu5Gc(a2-8)Neu5Gc(a2-3)Gal(b1-4)GlcNAc(b1-3)Gal(b1-4)GlcNAc
Summary of the method: as §1

[40] = target: Neu5Gc(a2-8)Neu5Gc(a2-6)Gal(b1-4)GlcNAc
Summary of the method: as §1

[41] = target: Neu5Gc(b2-6)Gal(b1-4)GlcNAc
Summary of the method: as §1

B1: PX14343B-bfa-546-20-546 (Bacteroides fragilis) (protein)
chain: CDLERYPLTDLSEETFWNSESNAELALTSLYRGSLTDGVEYNPSDWWSYHGMIMMEHLSDNAFDRRGENNPFFKISSGNLTADNAFIKRYWETSYKRIGYCNRFLVGIQNSSESEKKTRMIAEARFLRATQYFYLASYFKNVPLVENVLTGEEANNVTKTSQADILKWCVTEFTAAAADLPRFSAIPAGEAGRACKQAALAFLGRTCMLQKDWKSGAKAFHDIMELGDNAINANYQELFYPSTGTSNKENIFYIQYLENYLGTGLPQHALSAKDGGWSLVNPAADLYESYEFKDGTPFSYDDPRYDPSNLGKDRDPRLDYTIYYNGAIFMGTEYKMSPDYSAAKKEKLDYTSEASRTGFMMRKYFEESTPINDVQSANGLTPVIRYAEVLLGYLECLVEDNQTITQGILDETINAVRGRASVNMPPVTEVTPAKLREIVRHERRIELAMEGIRYWDIMRWGIAHEVLSQKIWGAPYPGSTQYATTTKEVDPTGNYRWYVGKRAFRNPTDYTWPIPQSEQNINPNLRD
[1]
  glycan array binding signal (z-score): -0.124
[2]
  glycan array binding signal (z-score): -0.113
[3]
  glycan array binding signal (z-score): -0.112
[4]
  glycan array binding signal (z-score): -0.108
[5]
  glycan array binding signal (z-score): -0.107
[6]
  glycan array binding signal (z-score): -0.129
[7]
  glycan array binding signal (z-score): -0.123
[8]
  glycan array binding signal (z-score): -0.126
[9]
  glycan array binding signal (z-score): -0.126
[10]
  glycan array binding signal (z-score): -0.125
Neu5Ac(a2-6)GalNAc
  glycan array binding signal (z-score): -0.133
[11]
  glycan array binding signal (z-score): -0.118
[12]
  glycan array binding signal (z-score): -0.082
[13]
  glycan array binding signal (z-score): -0.117
[14]
  glycan array binding signal (z-score): -0.131
Neu5Ac(a2-8)Neu5Ac
  glycan array binding signal (z-score): -0.11
[15]
  glycan array binding signal (z-score): -0.129
[16]
  glycan array binding signal (z-score): -0.12
[17]
  glycan array binding signal (z-score): -0.13
[18]
  glycan array binding signal (z-score): -0.135
[19]
  glycan array binding signal (z-score): -0.112
[20]
  glycan array binding signal (z-score): -0.131
[21]
  glycan array binding signal (z-score): -0.131
[22]
  glycan array binding signal (z-score): -0.118
[23]
  glycan array binding signal (z-score): -0.123
[24]
  glycan array binding signal (z-score): -0.126
[25]
  glycan array binding signal (z-score): -0.118
[26]
  glycan array binding signal (z-score): -0.126
[27]
  glycan array binding signal (z-score): -0.116
Neu5Ac(b2-6)GalNAc
  glycan array binding signal (z-score): -0.112
[28]
  glycan array binding signal (z-score): -0.124
[29]
  glycan array binding signal (z-score): -0.12
[30]
  glycan array binding signal (z-score): -0.13
[31]
  glycan array binding signal (z-score): -0.117
[32]
  glycan array binding signal (z-score): -0.115
Neu5Gc(a2-3)Gal(b1-4)Glc
  glycan array binding signal (z-score): -0.129
[33]
  glycan array binding signal (z-score): -0.122
[34]
  glycan array binding signal (z-score): -0.129
[35]
  glycan array binding signal (z-score): -0.113
[36]
  glycan array binding signal (z-score): -0.098
Neu5Gc(a2-6)GalNAc
  glycan array binding signal (z-score): -0.114
[37]
  glycan array binding signal (z-score): -0.128
[38]
  glycan array binding signal (z-score): -0.122
[39]
  glycan array binding signal (z-score): -0.088
[40]
  glycan array binding signal (z-score): -0.114
[41]
  glycan array binding signal (z-score): -0.109

From the supplement of paper PMC8728848
